The structures appear in SMILES notation. In all, about 110,000 compounds were measured (“z-score”: median about -0.1, highest 2% from about 2 on). Some of the results follow. Active and inactive are the calls of the source.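 The calls were made as follows: active = z-score in the third read window above 3 or below -3; inactive = the rest.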

In this assay the target is Metabotropic glutamate receptor 8 (Rattus norvegicus) (UniProt P70579). Description: mGluR8 Gi/Go-coupled signaling modulation – cell-based, rat, thallium flux, HTS, primary screen (AID 488969). Conditions: HEK293 rat mGluR8, GIRK (G protein-gated inwardly rectifying potassium channel) thallium flux, FluoZin2; at 10 µM; stronger effect = higher value; submaximal glutamate (EC20) added with thallium.
Sequence of UniProt P70579 (P70579 whole entry, looked up): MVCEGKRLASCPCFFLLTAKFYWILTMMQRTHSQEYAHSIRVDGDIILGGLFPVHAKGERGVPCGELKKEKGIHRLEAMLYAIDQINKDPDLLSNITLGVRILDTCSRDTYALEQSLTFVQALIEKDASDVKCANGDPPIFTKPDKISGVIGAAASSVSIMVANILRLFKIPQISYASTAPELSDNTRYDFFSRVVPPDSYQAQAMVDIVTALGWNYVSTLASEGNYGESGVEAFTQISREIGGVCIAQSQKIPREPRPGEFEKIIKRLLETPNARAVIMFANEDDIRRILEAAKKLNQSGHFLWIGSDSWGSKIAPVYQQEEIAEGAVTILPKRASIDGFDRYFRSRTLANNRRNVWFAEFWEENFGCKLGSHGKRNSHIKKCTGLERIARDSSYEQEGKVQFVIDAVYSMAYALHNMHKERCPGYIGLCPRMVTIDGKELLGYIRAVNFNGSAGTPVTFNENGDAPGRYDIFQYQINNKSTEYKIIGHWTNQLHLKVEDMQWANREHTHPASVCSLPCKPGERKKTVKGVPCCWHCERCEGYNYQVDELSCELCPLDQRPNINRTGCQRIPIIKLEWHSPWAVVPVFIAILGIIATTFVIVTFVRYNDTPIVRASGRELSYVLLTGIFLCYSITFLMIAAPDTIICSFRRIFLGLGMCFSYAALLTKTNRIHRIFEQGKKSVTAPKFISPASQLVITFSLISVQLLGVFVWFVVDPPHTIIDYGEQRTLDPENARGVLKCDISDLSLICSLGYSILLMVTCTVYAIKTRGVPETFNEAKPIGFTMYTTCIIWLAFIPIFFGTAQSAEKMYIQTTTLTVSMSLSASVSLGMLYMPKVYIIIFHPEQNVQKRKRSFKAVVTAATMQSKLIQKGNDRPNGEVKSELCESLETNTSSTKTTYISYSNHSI
The molecule `COc1ccccc1Nc1cc(C(=O)NCCCN2CCOCC2)c2ccccc2n1` had a z-score of 1.29. To `O=C(O)c1cc(-c2ccccn2)n[nH]1` belongs 0.643; to `CN(c1ccccc1)S(=O)(=O)c1cc(C(=O)Nc2nc3ccccc3[nH]2)ccc1Cl`, -0.104; to `CC1=N/C(=C\c2ccc([N+](=O)[O-])cc2)C(=O)N1c1ccc(Cl)cc1`, -0.292. As to `O=C(NC(=S)Nc1nc(-c2ccccc2)cs1)c1cncc(Br)c1`, the z-score worked out at 0.252. Then `O=C1CC(C(=O)Nc2ccc(O)c(C(=O)O)c2)C(c2ccccc2)O1` (centres undefined), with -0.066; and `CCOC(=O)c1cnn2c(C)cc(-c3ccc(F)cc3)nc12`, with -0.151; and `O=C(CSc1nnnn1-c1ccccc1)Nc1ncc2c(n1)CC(c1ccccc1)CC2=O` (centres undefined), with 0.798. To `Cc1cc(C)cc(C(=O)N2CCN=C2c2ccccc2)c1` belongs -0.228; to `CC1(C)Cc2c(sc3nnn(Cc4ccccc4)c(=O)c23)CO1`, -0.402; to `CCOC(=O)c1c(COc2ccccc2)oc2ccc(O)cc12`, 0.0491. To `O=S(=O)(c1ccc(Br)s1)N1CCCCC1` belongs -0.213; to `O=C(CSCc1ccccc1)NNC(=S)Nc1cccc(Cl)c1Cl`, 0.701; to `COc1ccc(NC(=O)C23CCC(C)(C(=O)C2)C3(C)C)cc1` (centres undefined), 0.0344. With `Cc1c(C(=O)OCCN2CCCCC2)oc2ccccc12`, the z-score worked out at 0.189. To `Cc1ccnc2c(N3C(=O)C4C5c6ccccc6C(c6ccccc65)C4C3=O)cccc12` (centres undefined) belongs -0.78; to `COc1ccc(CNCCSc2nnnn2C)cc1OC`, 0.0427; to `Cc1cc(C(=O)N2CCN(c3ncccn3)CC2)c(C)o1`, 0.574. Then `Cc1ccc(N2CCN(c3ccc(NCc4nc5ccccc5n4C)cc3)CC2)cc1`, with -0.26.

Turning to `C=CCN(c1cccc(C(F)(F)F)c1)S(=O)(=O)c1cccc(C(=O)OCC(=O)NC)c1`, the z-score was -0.13. `Cc1cc(NC(=O)CSc2nnc(-c3ccco3)n2Cc2ccccc2)no1` yielded a z-score of -0.0382. Then `CC(C)C(=O)NC(c1ccc([N+](=O)[O-])cc1)c1c(O)ccc2ccccc12` (centres undefined), with -0.44.

Consider `Nc1c(C(=O)NCc2ccccc2)nnn1Cc1cccc(Cl)c1`, for which the z-score was -0.134.

For `COc1ccccc1N1CCN(C(=O)c2ccc3[nH]c4c(c3c2)CCCC4)CC1`, the z-score was -0.188. To `CC(=O)Nc1ccc(S(=O)(=O)N(CC(=O)O)Cc2ccccc2)cc1` belongs -0.117; to `Cc1nnc(SCc2cnc(-c3ccc(C(C)C)cc3)s2)n1C`, 0.448; to `O=C(NCc1ccccc1)c1cc(-c2cccs2)on1`, -0.365. To `O=C(NCCNC(=O)c1cc(OCC(F)(F)F)ccc1OCC(F)(F)F)Nc1ccc(OC(F)(F)F)cc1` belongs -0.136; to `CC(C)(C)n1nc2c(c1NC(=O)COc1ccc3ccccc3c1)CS(=O)C2` (centres undefined), 0.226; to `CC1CCC(NC(=O)Cn2c(=O)[nH]c3ccsc3c2=O)CC1` (centres undefined), -0.274. To `O=C(Cc1c(O)c2ccccc2[nH]c1=O)N(Cc1ccccc1)Cc1ccccc1` belongs -0.268; to `O=C(COc1ccc(Br)cc1)N(Cc1ccccc1)c1ccccn1`, -0.518; to `Cc1ccccc1OCc1nnc(SCc2cc(=O)[nH]c3ccccc23)n1-c1ccccc1`, 0.00735.

`O=C(CC(c1ccc(F)cc1)c1ccco1)N1CCOCC1` (centres undefined) displayed a z-score of 1.19. Then `FC(F)(F)c1ccc(N=Cc2sc(N3CCOCC3)nc2-c2ccccc2)cc1`, with 0.253; and `COc1ccc(N2C(=O)/C(=C/c3cccnc3)NC2=S)cc1`, with -0.439. Then `Cc1cccc(-n2c(N)cc(=O)nc2SCC(=O)NC2CCCCC2)c1`, with 0.281; and `COc1cc(-c2cc(N)n(S(=O)(=O)c3ccc(F)cc3)n2)cc(OC)c1OC`, with -0.632; and `O=C(O)C1C2C=CC(O2)C1C(=O)Nc1ccc(S(=O)(=O)Nc2ccccc2)cc1` (centres undefined), with 0.466.

Consider `CCN(c1ccccc1)S(=O)(=O)c1cc(C(=O)Nc2ccc(F)c(F)c2)ccc1F`, for which the z-score is -0.178. To `COC(=O)c1[nH]c2ccc(C)cc2c1NS(=O)(=O)c1ccc(F)cc1` belongs 0.0029. For the molecule `CCCN(CCC)CC(=O)Nc1cccc2c1OCO2`, the z-score is -0.799. Then `O=C(Nc1ccc(Br)cc1)c1ccc(F)c(S(=O)(=O)NCc2cccs2)c1`, with 0.492; and `CCOC(=O)N1CCN(C(=O)CN(c2cccc(C)c2)S(=O)(=O)c2ccccc2)CC1`, with -0.274; and `CCOc1ccccc1Oc1c(C)oc2cc(OC(=O)N3CCOCC3)ccc2c1=O`, with -0.0886. Then `COc1ccc(/C=N/NC(=O)Cn2cnc3ccccc3c2=O)cc1OC`, with 0.0719.

Molecule `CCCCCNC(=O)c1cccnc1SCC(=O)Nc1ccccc1OC` yielded a z-score of -0.782. To `O=C(CCC(=O)Nc1ccccc1)NNC(=O)COc1ccccc1` belongs -0.00186; to `Cc1ccc(S(=O)(=O)NC(N)=NCCc2ccc(Cl)cc2)cc1C`, -0.0718. To `CCOc1cc(Br)ccc1S(=O)(=O)NCc1ccccc1` belongs -0.241; to `O=C1CC(N2CCC(c3nc4ccccc4[nH]3)CC2)C(=O)N1Cc1ccccc1` (centres undefined), -0.112; to `Cc1ccc(NC(=O)c2ccc(CSc3nnc(-c4ccncc4)n3C)cc2)cc1`, 0.0453. To `CC(C)CCNC(=S)Nc1ccc(F)cc1` belongs 0.97. The molecule `O=C(Cc1cscn1)c1ccc(O)cc1O` yielded a z-score of 0.188.

In the case of `c1ccc(C(c2nnnn2C2CCCC2)N2CCN(c3ccccc3)CC2)cc1` (centres undefined), the z-score was 0.0202. Then `COc1nc(Nc2ccc([N+](=O)[O-])cc2)nc(NC(C)C)n1`, with -0.335; and `Cc1ccc2c(CC(=O)Nc3sccc3C(N)=O)coc2c1`, with -0.213; and `COc1ccc(OCC(=O)N2CC3(C)CC2CC(C)(C)C3)cc1` (centres undefined), with -0.2. The molecule `O=C(CCl)Nc1cccc(S(=O)(=O)N2CCCCCC2)c1` displayed a z-score of -0.426.

For `CC(Sc1nnc(N)s1)C(=O)Nc1ccc(N2CCOCC2)cc1` (centres undefined), the z-score amounted to 0.0274.

`CC(NC(=O)CN(C1CCCCC1)S(C)(=O)=O)c1ccccc1` (centres undefined) displayed a z-score of 0.203. Then `Cc1ccccc1Cn1c(CN2CCN(C(=O)c3ccco3)CC2)nc2c1c(=O)n(C)c(=O)n2C`, with 0.062; and `COC(=O)CNc1c(-c2ccccc2)nc2ccc(Br)cn12`, with -0.131. `c1ccc(SCc2nc(-c3ccccn3)no2)cc1` registered a z-score of -0.32. `CC(C)(C)c1ccc(C(=O)OCCNC(=O)c2c(Cl)nc3ccccn23)cc1` displayed a z-score of -0.742. Then `O=c1c2c3c(sc2n2cnnc2n1-c1ccccc1)N(Cc1ccccc1)CCC3`, with -0.668.

Consider `O=C(O)c1ccc(NS(=O)(=O)c2cc(Cl)ccc2Cl)cc1O`, for which the z-score came out at 0.000578.

Molecule `O=C(COC(=O)c1c(Cl)cccc1Cl)Nc1cc(Cl)ccc1Oc1ccccc1` gave a z-score of -0.584.

As to `CCCc1cc(C(N)=O)c(NC(=O)C2CCCO2)s1` (centres undefined), the z-score was -0.179. To `O=C(c1ccc(N2C(=O)C3C4c5ccccc5C(c5ccccc54)C3C2=O)cc1)N1CCOCC1` (centres undefined) belongs -0.32; to `Clc1cccc2sc(N3CCCC3)nc12`, -0.417. Then `O=C(c1cc2ccccc2oc1=O)N1CCN(c2ccc(N3CCOCC3)nn2)CC1`, with -0.215. For `Cc1cc(Cl)ccc1Nc1ncccc1C(N)=O`, the z-score is -0.194.

`COc1ccc2[nH]c(C(=O)O)c(NS(=O)(=O)c3ccc(Cl)s3)c2c1`: the z-score was found to be 0.0834. For the molecule `CCOC(=O)c1c(C)n(-c2ccc(C)cc2)c2c(C(C(C)=O)C(=O)O)c(Br)c(O)c(O)c12` (centres undefined), the z-score was -0.17. Then `COc1ccccc1N1CCN(C(=O)CSc2nnc3c4ccccc4n(CC(=O)O)c3n2)CC1`, with -0.165. In turn, `CC(=O)Nc1ccc(S(=O)(=O)NCc2ccc(C)cc2)cc1` returned a z-score of 0.235. To `COc1cc(C(=O)NCCC(=O)NCc2ccc3c(c2)OCO3)cc(OC)c1OC` belongs -0.291; to `Cc1ccc2c(c1)-c1c(ssc1=S)C(C)(C)N2C(=O)c1ccco1`, 0.0281.

The molecule `C=CCSc1nc(N)c(C(=O)Nc2ccccc2)cc1C#N` yielded a z-score of -0.147. To `Cc1ccc(OCCCC(=O)NC(C)c2ccccc2)cc1` (centres undefined) belongs 0.104. As for `Cc1ccc(S(=O)(=O)NC2c3cccc4cccc(c34)C2Sc2nc(C)cc(C)n2)cc1` (centres undefined), the z-score is -0.244.

For `COCCN1CCN(c2cc(-c3ccccc3)nc3cc(-c4cccc(F)c4)nn23)CC1`, the z-score worked out at 0.147. Then `Cc1nnc(SCCn2c(N3CCCCC3)nc3c2c(=O)n(C)c(=O)n3C)s1`, with -0.0165; and `O=C(COC(=O)C1CC(=O)N(c2nc(-c3ccccc3)cs2)C1)c1ccccc1` (centres undefined), with -0.136; and `COc1cccc(NC(=O)NCCCSC2CCCCC2)c1`, with active: 4.47. Then `COc1ccc(-c2ccc(Nc3ccc(S(=O)(=O)N4CCCC4)cc3)nn2)cc1OC`, with -0.856. To `CCN(CC)CC#CC(C)(C)OC(C)=O` belongs 0.051; to `O=C(NCC12CC3CC(CC(C3)C1)C2)c1nn2cccnc2c1Cl`, -0.402. `Clc1cc(Cl)cc(Nc2ncn[nH]2)c1` had a z-score of -0.0414. `COC(=O)c1ccc(C(=O)OC)c(NC(=O)c2cnc3n(c2=O)CCS3)c1` yielded a z-score of -0.415. `Cc1ccc(C)c(OCC(=O)NCCNC(=O)COc2cc(C)ccc2C)c1` displayed a z-score of -0.05. Then `CCc1cc2c(=O)c(-c3nc4ccccc4[nH]3)coc2cc1OC(=O)N1CCOCC1`, with -0.243; and `Cc1ccc2nsnc2c1S(=O)(=O)NCc1ccncc1`, with -0.302. To `Cc1oc2cc(O)ccc2c(=O)c1Oc1ccccc1` belongs 0.344; to `O=C1c2cccc(OCc3ccc(F)cc3)c2CCN1Cc1ccc(F)cc1`, 0.17. Consider `CC(=O)c1c(C)[nH]c(C(=O)CSc2nnc(-c3ccccc3)o2)c1C`, for which the z-score is -0.229. With `COc1ccccc1CNC(=O)COC(=O)c1n[nH]c2ccccc12`, the z-score is -0.985. For the molecule `O=C(O)c1cc2ccccc2c(=O)s1`, the z-score was -0.259. As for `CC(CC(=O)Nc1ccc(C(N)=O)cc1)c1ccccc1` (centres undefined), the z-score is -1.46. In the case of `COC(=O)C(C(=O)OC)N1C(=O)CCC1=O`, the z-score came out at 0.512. To `CC(C)C(=O)Nc1ccc(Cc2ccc(NC(=O)C(C)C)c(O)c2)cc1O` belongs -0.234. Then `CC1=NN(c2ccccc2)C(=O)/C1=C\N1CC(C)OC(C)C1` (centres undefined), with -0.187; and `Cc1ccc(S(=O)(=O)/N=C2/C=C(C3C(=O)CC(C)(C)CC3=O)C(=O)c3ccccc32)cc1`, with 0.359.

On to `Cc1cc2ccccc2c(=O)n1CC(=O)NCC(=O)N1CCCC1`, for which the z-score was -0.263. Then `Cc1cc(C)nc(Sc2c(F)c(F)c(C(F)(F)F)c(F)c2F)n1`, with 0.0241. Then `COc1ccc(Cc2nnc(NC(=O)CSc3ccc(Cl)cc3)s2)cc1OC`, with 0.255. To `C/C(=N\N=C\c1ccccc1)c1nnn(-c2nonc2N)c1C` belongs -0.155; to `CCCCn1c(-c2csc3c2CCC(C)C3)n[nH]c1=S` (centres undefined), active: 7.55.
